How the values were obtained:
[1] = molecular target: T1, recombinant cynomolgus (cyno) complement C2 (XP_005553508.1), C-terminal 6His-tag, made in house (CHO cell … (cynomolgus monkey (Macaca fascicularis), UniProt P06681 21-752 (human entry))); test: binding kinetics (BLI presumed)
T1 construct: also called cyno C2; Cyno C2
T1 chain: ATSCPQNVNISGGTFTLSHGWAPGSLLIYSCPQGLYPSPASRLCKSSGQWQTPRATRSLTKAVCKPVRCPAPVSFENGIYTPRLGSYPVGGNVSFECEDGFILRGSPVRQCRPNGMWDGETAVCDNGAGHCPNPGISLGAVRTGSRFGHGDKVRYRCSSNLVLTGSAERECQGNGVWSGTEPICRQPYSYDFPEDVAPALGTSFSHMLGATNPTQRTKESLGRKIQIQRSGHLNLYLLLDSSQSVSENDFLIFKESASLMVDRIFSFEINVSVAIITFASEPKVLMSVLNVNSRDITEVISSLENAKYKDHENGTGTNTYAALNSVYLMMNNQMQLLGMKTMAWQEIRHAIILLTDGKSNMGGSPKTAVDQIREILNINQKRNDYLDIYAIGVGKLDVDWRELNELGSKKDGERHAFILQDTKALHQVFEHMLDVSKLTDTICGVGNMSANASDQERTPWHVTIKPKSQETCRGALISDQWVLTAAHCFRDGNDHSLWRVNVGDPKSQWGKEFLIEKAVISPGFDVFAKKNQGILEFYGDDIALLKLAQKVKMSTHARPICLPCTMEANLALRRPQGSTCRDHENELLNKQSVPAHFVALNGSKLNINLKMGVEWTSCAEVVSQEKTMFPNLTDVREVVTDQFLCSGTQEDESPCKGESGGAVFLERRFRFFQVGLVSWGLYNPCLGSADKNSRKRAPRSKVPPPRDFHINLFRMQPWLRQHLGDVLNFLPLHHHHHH

[2] = molecular target: T2, recombinant cyno C2a, C-terminal 6His-tag, made in house (CHO cell expression) (cynomolgus monkey, UniProt P06681 244-752 (human entry)); test: binding kinetics (BLI presumed)
T2 chain: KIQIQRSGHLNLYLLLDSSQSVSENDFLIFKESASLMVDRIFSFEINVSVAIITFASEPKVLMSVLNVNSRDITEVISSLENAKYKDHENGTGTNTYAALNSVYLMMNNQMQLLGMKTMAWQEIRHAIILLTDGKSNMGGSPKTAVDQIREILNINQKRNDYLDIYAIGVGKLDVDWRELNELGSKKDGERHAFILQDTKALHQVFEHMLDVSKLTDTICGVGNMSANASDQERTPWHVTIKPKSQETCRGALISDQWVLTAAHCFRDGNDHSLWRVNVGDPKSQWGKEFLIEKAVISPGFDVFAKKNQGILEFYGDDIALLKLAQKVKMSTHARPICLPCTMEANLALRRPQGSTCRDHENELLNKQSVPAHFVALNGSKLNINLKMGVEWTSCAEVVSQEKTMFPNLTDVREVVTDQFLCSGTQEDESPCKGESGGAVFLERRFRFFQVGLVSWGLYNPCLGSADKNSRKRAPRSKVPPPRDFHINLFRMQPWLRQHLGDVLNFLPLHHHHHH

[3] = molecular target: T3, recombinant human complement C2 (NP_000054.2), C-terminal 6His-tag, made in house (CHO cell expression) (human, UniProt P06681 21-752); test: BLI (Gator); ratio of dissociation at pH 5.8 to pH 7.4
T3 construct: a linker before the tag is not described; also called human C2; Human C2
T3 sequence: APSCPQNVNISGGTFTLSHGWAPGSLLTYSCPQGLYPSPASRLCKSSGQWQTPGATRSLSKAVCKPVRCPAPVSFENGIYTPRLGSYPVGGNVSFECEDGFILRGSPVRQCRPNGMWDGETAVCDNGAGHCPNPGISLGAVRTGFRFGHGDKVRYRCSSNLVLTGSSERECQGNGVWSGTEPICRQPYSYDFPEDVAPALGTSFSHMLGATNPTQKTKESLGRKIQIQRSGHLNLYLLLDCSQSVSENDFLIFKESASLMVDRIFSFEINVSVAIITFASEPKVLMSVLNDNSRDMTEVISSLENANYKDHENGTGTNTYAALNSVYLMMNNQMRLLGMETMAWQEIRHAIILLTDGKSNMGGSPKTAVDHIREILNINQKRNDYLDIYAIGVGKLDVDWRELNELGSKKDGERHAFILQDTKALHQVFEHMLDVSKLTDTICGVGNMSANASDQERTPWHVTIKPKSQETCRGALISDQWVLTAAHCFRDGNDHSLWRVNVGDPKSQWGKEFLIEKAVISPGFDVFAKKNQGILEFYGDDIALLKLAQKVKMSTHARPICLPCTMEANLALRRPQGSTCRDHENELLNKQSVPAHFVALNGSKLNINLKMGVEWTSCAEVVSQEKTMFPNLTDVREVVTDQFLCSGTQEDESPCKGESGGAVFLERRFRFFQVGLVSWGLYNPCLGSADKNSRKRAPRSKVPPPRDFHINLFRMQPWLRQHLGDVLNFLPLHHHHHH
Experimental: (§1) The histidine mutant constructs in Table 4 were tested for their pH-dependent dissociation from human C2. Probe-immobilized anti-C2 antibodies were incubated with C2 at pH 7.4 for 600s, followed by a 600s dissociation period in K Buffer at pH 7.4 or pH 5.8. The data were processed and analyzed by the Gator evaluation software.
(§2) Non-fusion mAb were used for comparison.

[4] = molecular target: T1, recombinant cynomolgus (cyno) …; test: as above
Experimental: as §1, §2

Kd [1]: 0.192 nM | koff [1]: 3.86e-05 s⁻¹ | kon [1]: 200000 M⁻¹ s⁻¹ | Kd [2]: 0.346 nM | koff [2]: 7.3e-05 s⁻¹ | kon [2]: 211000 M⁻¹ s⁻¹ | Fold dissociation pH 5.8/pH 7.4 [3]: 0.54 fold | Fold dissociation pH 5.8/pH 7.4 [4]: 4.32 fold
B1: 69.44FH (Factor H 1-5 fusion with 69.44; FH1-5 fused to the heavy chain C-terminus) (other)
heavy: QVQLVQSGAEVKKPGASVKVSCKASGYSFTTYYMYWVRQAPGQGLEWMGIITPSGGSTTYAQKFQDRVTMTRDASTTTVYMELSSLRSEDTAVYYCARGYEGSYGFDHWGQGTLVTVSSASTKGPSVFPLAPCSRSTSESTAALGCLVKDYFPEPVTVSWNSGALTSGVHTFPAVLQSSGLYSLSSVVTVPSSSLGTKTYTCNVDHKPSNTKVDKRVESKYGPP[human IgG4 Fc with S228P M428L N434A (EU numbers) not shown]EDCNELPPRRNTEILTGSWSDQTYPEGTQAIYKCRPGYRSLGNIIMVCRKGEWVALNPLRKCQKRPCGHPGDTPFGTFTLTGGNVFEYGVKAVYTCNEGYQLLGEINYRECDTDGWTNDIPICEVVKCLPVTAPENGKIVSSAMEPDREYHFGQAVRFVCNSGYKIEGDEEMHCSDDGFWSKEKPKCVEISCKSPDVINGSPISQKIIYKENERFQYKCNMGYEYSERGDAVCTESGWRPLPSCEEKSCDNPYIPNGDYSPLRIKHRTGDEITYQCRNGFYPATRGNTAKCTSTGWIPAPRCTLKP
light: SYELTQPPSVSLSPGQTASITCSGDKLGNKYTCWYQQKPGQSPVLVIYQDNKRPSGIPERFSGSNSGNTATLTISGTQAMDEADYYCQTWDSSTAVFGGGTKLTVLGQPKAAPSVTLFPPSSEELQANKATLVCLISDFYPGAVTVAWKADSSPVKAGVETTTPSKQSNNKYAASSYLSLTPEQWKSHRSYSCQVTHEGSTVEKTVAPTECS
notes: Antibody-factor H fusion protein

Source: patent US20250376539A1 (KIRA PHARMACEUTICALS SUZHOU, published 2025)
